Our source for the cytotoxicity call values is the antibiotic and cytotoxicity screens of Wong et al. (2023).

Structures are written as SMILES. The list shows a part of the results.

The test system of the experiment is HSkMC (human skeletal muscle cells). In words: cytotoxicity call (relative viability < 0.9). The settings on record: 10 µM.
In the case of `C[C@H]1CCCCO[C@@H](CN(C)C(=O)Nc2ccc3c(c2)OCO3)[C@@H](C)CN([C@@H](C)CO)C(=O)c2cc(NC(=O)CCC(F)(F)F)ccc2O1`, the cytotoxicity call was “inactive”. For `C[C@@H]1CN([C@H](C)CO)C(=O)c2cc(NS(=O)(=O)c3cn(C)cn3)ccc2O[C@@H](C)CCCCO[C@@H]1CN(C)S(=O)(=O)c1cccs1`, the cytotoxicity call was “inactive”.

`COc1ccc2c3c(n(c2c1)C)[C@@H](CO)N(C[C@]13CN(C1)C(=O)Nc1cccc(c1)F)C(=O)CN1CCOCC1`: the cytotoxicity call was “inactive”.

Take `C[C@@H]1CCCCO[C@H](CN(C)Cc2ccc3c(c2)OCO3)[C@H](C)CN([C@@H](C)CO)C(=O)c2cc(NC(=O)C3CCCCC3)ccc2O1`: the cytotoxicity call is “inactive”. For `Cc1ccc(S[C@]2(C(=O)NCc3ccccc3)CC(=O)N(C3CCCCC3)[C@@H]2c2ccc(CO)cc2I)cc1`, the cytotoxicity call is “inactive”. Turning to `C[C@H](CO)N1C[C@H](C)[C@H](CN(C)Cc2ccc(-c3ccccc3)cc2)Oc2c(NC(=O)NC3CCCCC3)cccc2C1=O`, the cytotoxicity call was “inactive”. Turning to `COc1ccc(S(=O)(=O)N(C)C[C@@H]2OCCCC[C@H](C)Oc3ccc(NS(C)(=O)=O)cc3C(=O)N([C@H](C)CO)C[C@@H]2C)cc1`, the cytotoxicity call is “inactive”.

As for `C[C@H]1CCCCO[C@H](CN(C)S(C)(=O)=O)[C@@H](C)CN([C@@H](C)CO)C(=O)c2cc(NS(=O)(=O)c3cn(C)cn3)ccc2O1`, the cytotoxicity call is “inactive”.

`C[C@H]1CN([C@@H](C)CO)C(=O)Cc2cc(NS(=O)(=O)c3cn(C)cn3)ccc2O[C@@H]1CN(C)Cc1ccncc1`: the cytotoxicity call is “inactive”. As for `Cc1cccc(C)c1Nc1nc2c(C)cc(C)c(C)c2s1`, the cytotoxicity call is “inactive”. Take `N=C(N)SCCc1cnc[nH]1`: the cytotoxicity call was “inactive”. For `C#CCOC(=O)[C@@H]1[C@@H](C(=O)O)[C@@H]2C=C[C@@H]1C2`, the cytotoxicity call was “inactive”. As for `COc1cccc(S(=O)(=O)N[C@@H]2CC[C@@H](CCn3cc(-c4ccccc4OC)nn3)O[C@@H]2CO)c1`, the cytotoxicity call was “inactive”. On to `C[C@H](CO)N1C[C@H](C)[C@H](CN(C)Cc2ccc(Oc3ccccc3)cc2)Oc2ccc(NC(=O)Cc3cn(C)c4ccccc34)cc2CC1=O`, for which the cytotoxicity call was “inactive”. In the case of `CN(C)CCCNc1ncnc(N)c1[N+](=O)[O-]`, the cytotoxicity call is “inactive”. For `C[C@H]1CN([C@@H](C)CO)C(=O)c2cc(NS(=O)(=O)c3cccs3)ccc2O[C@H]1CN(C)S(=O)(=O)c1cccs1`, the cytotoxicity call is “inactive”.

As to `COc1ccc(NC(=O)Nc2cccc3c2O[C@@H](CN(C)Cc2ccc(C(=O)Nc4ccccc4N)cc2)[C@H](C)CN([C@@H](C)CO)C3=O)cc1`, the cytotoxicity call is “inactive”. Consider `COCC(=O)N1[C@@H]2CC[C@H]1COC2`, for which the cytotoxicity call was “inactive”. To `C[C@@H]1CCCCO[C@H](CN(C)C(=O)c2ccccc2)[C@H](C)CN([C@H](C)CO)C(=O)c2cc(NC(=O)c3ccccc3)ccc2O1` belongs “inactive”; to `C[C@@H]1CN([C@@H](C)CO)C(=O)c2cccc(NC(=O)c3nc4ccccc4s3)c2O[C@H]1CN(C)Cc1ccc(Cl)c(Cl)c1`, “inactive”; to `Cc1ccc(S(=O)(=O)N(C)C[C@H]2Oc3ccc(NC(=O)C4CC4)cc3CC(=O)N([C@H](C)CO)C[C@H]2C)cc1`, “inactive”.

As to `COc1ccc(NC(=O)N(C)C[C@H]2OCCCC[C@@H](C)Oc3ccc(NC(=O)Nc4ccc(F)cc4)cc3C(=O)N([C@H](C)CO)C[C@@H]2C)cc1`, the cytotoxicity call is “inactive”. On to `C[C@@H]1CN([C@H](C)CO)C(=O)c2cc(NC(=O)Nc3ccc(C(F)(F)F)cc3)ccc2O[C@H]1CN(C)C(=O)Nc1cccc2ccccc12`, for which the cytotoxicity call was “inactive”. Consider `CCN1C(=O)S/C(=C\C(=O)O)C1=O`, for which the cytotoxicity call is “inactive”. On to `O=C(CCCCCNC(=O)OCCCCO[C@@H]1C[C@H](c2ccc3c(c2)OCO3)C=C(C(=O)N2CCOCC2)O1)NO`, for which the cytotoxicity call was “inactive”. To `COc1ccc(NC(=O)Nc2ccc3c(c2)C(=O)N([C@H](C)CO)C[C@@H](C)[C@@H](CN(C)S(=O)(=O)c2ccc(F)cc2)OCCCC[C@H](C)O3)cc1` belongs “inactive”.

Turning to `O=C(Nc1nccs1)[C@@H]1[C@@H](CO)[C@@H]2Cn3c(cccc3=O)[C@H]1N2C(=O)C1CC1`, the cytotoxicity call is “inactive”.

As for `Cc1ccccc1S(=O)(=O)N1C[C@H](O)COC[C@H]2O[C@@H](CC(=O)N3CCOCC3)CC[C@@H]21`, the cytotoxicity call is “inactive”. `Cc1ccc2c(c1)/C(=C/c1ccncc1)c1cc3ccccc3nc1-2`: the cytotoxicity call was “inactive”. As to `C[C@@H]1CN([C@H](C)CO)C(=O)c2cc(NC(=O)NC3CCCCC3)ccc2O[C@@H](C)CCCCO[C@@H]1CN(C)C(=O)Nc1ccccc1`, the cytotoxicity call was “inactive”. `C[C@H](CO)N1C[C@H](C)[C@@H](CN(C)S(=O)(=O)c2ccc(Cl)cc2)OCc2ccccc2-c2c(n(C)c3ccccc23)C1=O`: the cytotoxicity call was “inactive”.
